# Experimental data reported in PubChem BioAssay (NCATS).
# Values joined by “and” are separate entries in the source; they are usually repeats but may differ in a detail not shown here. Identical values can stand only once. Inconclusive results, whose numbers are uncertain, are shown with a selection of clear calls. Potencies beside an inconclusive call are fits to weak or partial responses and may not hold up. Active and inactive are the calls of the source. The call rests on the fitted dose curve; in most records, active means well fitted curve in the direction sought with a large enough effect; inconclusive means small, poorly fitted or top-dose-only effect, or another doubt; inactive means no such curve, though single readings can be large; an effect the other way counts as inactive or inconclusive.
# Columns and labels:
# [1] = qHTS of pediatric cancer cell lines to identify multiple opportunities for drug repurposing: Primary screen for SJ-GBM2 cells (AID 1347091); settings: SJ-GBM2 viability, CellTiter-Glo luminescence, 48 h; series mostly up to 46 µM
# Outline: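 Cell viability, CellTiter-Glo luminescence; 500-1,000 cells/well, 8- or 11-point titration, 48 h compound exposure at 37 degrees C, 5% CO2. Controls: DMSO neutral, bortezomib 2.3 µM final as positive.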
# [2] = qHTS of pediatric cancer cell lines to identify multiple opportunities for drug repurposing: Primary screen for BT-37 cells (AID 1347094); settings: BT-37 viability, CellTiter-Glo luminescence, 48 h; series mostly up to 57.3 µM
# Outline: (§1)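 ATP-based luminescence (CellTiter-Glo) quantifies viability after a 48-hour exposure. Compounds are dosed across 8 or 11 final concentrations; DMSO and 2.3 µM bortezomib serve as controls.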
# [3] = qHTS of pediatric cancer cell lines to identify multiple opportunities for drug repurposing: Primary screen for NB-EBc1 cells (AID 1347095); settings: NB-EBc1 neuroblastoma viability, CellTiter-Glo luminescence, 48 h; series mostly up to 46 µM
# Outline: as §1
# [4] = qHTS of pediatric cancer cell lines to identify multiple opportunities for drug repurposing: Primary screen for U-2 OS cells (AID 1347096); settings: U-2 OS viability, CellTiter-Glo luminescence, 48 h; series mostly up to 46 µM; further: nearly all actives have a fitted effect of over 50% in size
# Outline: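 Cells (500-1,000/well) rested 5 h, then received compounds for 48 h; metabolically active cells were measured by CellTiter-Glo luminescence. Final concentrations spanned up to 46 µM (MIPE, 11-point) or 0.59 nM-46 µM (NPC, 8-point) in primary screens, 11-point in follow-ups.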
# [5] = qHTS of pediatric cancer cell lines to identify multiple opportunities for drug repurposing: Primary screen for A673 cells (AID 1347092); settings: A673 Ewing sarcoma viability, CellTiter-Glo ATP luminescence, 48 h; activity change, negative = cytotoxic: at 46 µM (top of the series); further: nearly all actives have a fitted effect of over 45% in size
# Outline: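 Luminescence from CellTiter-Glo, taken after 15 min at room temperature, served as the proxy for metabolically active cells following 48 h treatment. Both potency and efficacy were taken from curves fitted to the titration data.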
# [6] = qHTS of pediatric cancer cell lines to identify multiple opportunities for drug repurposing: Primary screen for SK-N-MC cells (AID 1347093); settings: SK-N-MC viability, CellTiter-Glo luminescence, 48 h; activity change, negative = cytotoxic: at 46 µM (top of the series)
# Outline: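 Metabolically active cells were quantified by ATP-dependent luminescence (CellTiter-Glo, 15 min at room temperature) following 48 h treatment. Cells had been plated at 500-1,000 per well and settled for 5 h beforehand.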
# Potency means the concentration at half of the fitted maximal effect; tags describe the fitted curve by direction and shape.
structure (smiles),measurement,setting,value
NC(=Nc1ccccc1)Nc1ccccc1,Potency,[1],"inconclusive: 68.6 µM [cytotoxic, partial curve, poor fit]"
same,Potency,[2],"inconclusive: 17.8 µM [cytotoxic, partial curve]"
CCCCC(CC)CN=C(N)NC(N)=NCCCCCCN=C(N)NC(N)=NCC(CC)CCCC (stereo not given),Potency,[1],active: 1.06 µM
same,Potency,[3],active: 10.6 µM
same,Potency,[4],active: 21.1 µM
CCOC(=O)OC(C)OC1=C(C(=O)Nc2ccccn2)N(C)S(=O)(=O)c2ccccc21 (stereo not given),Potency,[5],inactive
CCCCOc1ccc(C(=O)CCN2CCCCC2)cc1,Potency,[1],"inconclusive: 21.1 µM [cytotoxic, single point]"
same,Potency,[2],"inconclusive: 27.6 µM [cytotoxic, partial curve, poor fit]"
CN(C)CCCOc1nn(Cc2ccccc2)c2ccccc12,Potency,[1],"inconclusive: 33.5 µM [cytotoxic, single point]"
same,Potency,[2],"inconclusive: 34.7 µM [cytotoxic, single point]"
same,Potency,[3],"inconclusive: 13.3 µM [cytotoxic, partial curve]"
same,Potency,[4],"inconclusive: 26.6 µM [cytotoxic, partial curve]"
c1cc(CN2CCCNCCNCCCNCC2)ccc1CN1CCCNCCNCCCNCC1,Potency,[1],inactive
same,Potency,[6],"inconclusive: 37200 nM [cytotoxic, single point]"
same,Potency,[3],inactive
O=C(O)Cn1nnc(-c2cc(N3CCC(Oc4cc(F)ccc4Br)CC3)no2)n1,Potency,[5],active: 0.372 µM
same,Potency,[6],"inconclusive: 37200 nM [cytotoxic, single point]"
same,Potency,[2],"inconclusive: 21.7 µM [cytotoxic, partial curve, poor fit]"
CC(C)C[C@H](NC(=O)CNC(=O)c1cc(Cl)ccc1Cl)B1OC(=O)CC(CC(=O)O)(C(=O)O)O1 (stereo not given in full),Potency,[1],active: 0.148 µM
same,Potency,[4],active: 0.743 µM
Cc1c(N(C)CS(=O)(=O)O)c(=O)n(-c2ccccc2)n1C,Potency,[5],"inconclusive: 10.6 µM [cytotoxic, partial curve, poor fit]"
CN1CCN(C(c2ccccc2)c2ccccc2)CC1,Potency,[1],inactive
same,Potency,[2],inactive
COc1cc(F)c(C(C)C)cc1-c1ccc(C(F)(F)F)cc1CN1C(=O)O[C@H](c2cc(C(F)(F)F)cc(C(F)(F)F)c2)[C@@H]1C,Potency,[1],"inconclusive: 1.87 µM [cytotoxic, full curve, poor fit]"
same,Potency,[2],"inconclusive: 24.3 µM [cytotoxic, partial curve, poor fit]"
O=C(CCNNC(=O)c1ccncc1)NCc1ccccc1,Potency,[5],inactive
same,Potency,[6],"inconclusive: 4.7 nM [cytotoxic, full curve, poor fit]"
C[C@@H](O)[C@H]1C(=O)N2C(C(=O)O)=C(S[C@@H]3CN[C@H](C(=O)N(C)C)C3)[C@H](C)[C@H]12,Potency,[5],inactive
NC(CS)C(=O)O (stereo not given),Potency,[5],inactive
CC[C@H]1CN2CCc3cc(OC)c(OC)cc3[C@H]2C[C@@H]1C[C@@H]1NCCc2cc(OC)c(OC)cc21,Potency,[1],active: 0.209 µM
same,Potency,[6],active: 296 nM
same,Potency,[3],active: 0.935 µM
same,Potency,[4],active: 1.18 µM
CCN(CC)C(C)CN1c2ccccc2Sc2ccccc21 (stereo not given),Potency,[5],inactive
CN(C)C(=S)SC(=S)N(C)C,Potency,[1],inactive
same,Potency,[3],active: 10.6 µM
same,Potency,[4],active: 1.68 µM
CN(C)CCOc1ccc(C(=C(CCCl)c2ccccc2)c2ccccc2)cc1,Potency,[1],"inconclusive: 29.6 µM [cytotoxic, single point]"
same,Potency,[6],inactive
same,Potency,[3],"inconclusive: 33.2 µM [cytotoxic, single point]"
Cc1ccc(S(=O)(=O)Nc2nc3ccccc3nc2Nc2ccc3nsnc3c2)cc1,Potency,[1],active: 0.0575 µM
same,Potency,[2],active: 0.0376 µM
same,Potency,[3],active: 0.645 µM
same,Potency,[4],"inconclusive: 2.57 µM [cytotoxic, full curve, poor fit]"
Oc1ccc(C(O)CNCCCCCCNCC(O)c2ccc(O)c(O)c2)cc1O (stereo not given),Potency,[5],"inconclusive: 21.1 µM [cytotoxic, single point]"
O=C1NS(=O)(=O)c2ccccc21,Potency,[5],inactive
NC[C@H]1O[C@H](O[C@H]2[C@@H](O)[C@@H](O[C@H]3O[C@H](CO)[C@@H](O)[C@H](N)[C@@H]3O)[C@H](N)C[C@@H]2N)[C@H](N)C[C@H]1O,Potency,[3],inactive
same,Potency,[4],inactive
Cc1ccc(C(C)C)cc2c(C)ccc1-2,Potency,[3],inactive
CCN(CC)C(=O)/C(C#N)=C/c1cc(O)c(O)c([N+](=O)[O-])c1,Potency,[2],"inconclusive: 38.9 µM [cytotoxic, single point]"
same,Potency,[3],"inconclusive: 23.7 µM [cytotoxic, single point]"
Oc1c(Cl)cc(Cl)c2cccnc12,Potency,[4],"inconclusive: 21.1 µM [cytotoxic, single point] and inconclusive: 29.6 µM [cytotoxic, single point]"
Oc1cc2c(cc1O)C1c3ccc(O)c(O)c3OCC1(O)C2 (stereo not given),Potency,[3],"inconclusive: 23.5 µM [cytotoxic, partial curve, poor fit]"
CCN(CC)CCNC(=O)c1ccc(N)cc1,Potency,[3],inactive
Cc1ccc(C(=O)C(C)CN2CCCCC2)cc1 (stereo not given),Potency,[2],inactive
Cc1ccc(NC(=O)c2cccc(N(C)C)c2)cc1NC(=O)c1ccc(O)cc1,Potency,[4],"inconclusive: 9.35 µM [cytotoxic, full curve]"
NS(=O)(=O)Cc1noc2ccccc12,Potency,[2],inactive
NC(=O)N1c2ccccc2C=Cc2ccccc21,Potency,[2],inactive
COc1cccc2c(NCc3ccccc3)nc(-n3c(N)nc4ccccc43)nc12,Potency,[2],active: 7.69 µM
same,Potency,[4],active: 9.35 µM
OCCN1C[C@H](O)[C@@H](O)[C@H](O)[C@H]1CO,Potency,[3],inactive
CC(=O)Oc1ccc(C(c2ccc(OC(C)=O)cc2)c2ccccn2)cc1,Potency,[6],"inconclusive: 3.8 nM [cytotoxic, full curve, poor fit]"
same,Potency,[3],inactive
same,Potency,[4],"inconclusive: 6.68 µM [cytotoxic, partial curve, poor fit]"
CC(=O)OCC(=O)[C@@]1(O)[C@H](C)C[C@H]2[C@@H]3CCC4=CC(=O)C=C[C@]4(C)[C@@]3(F)[C@@H](O)C[C@@]21C,Potency,[2],inactive
Cc1cc2nc3c(=O)[nH]c(=O)nc-3n(C[C@H](O)[C@H](O)[C@H](O)CO)c2cc1C,Potency,[4],inactive
CCCCc1nc2cc(C=CC(=O)NO)ccc2n1CCN(CC)CC,Potency,[2],active: 0.0485 µM
same,Potency,[3],active: 0.59 µM
same,Potency,[4],active: 0.743 µM
CC(=O)[C@H]1CC[C@H]2[C@@H]3C[C@H](C)C4=CC(=O)CC[C@]4(C)[C@H]3[C@@H](O)C[C@]12C,Potency,[2],inactive
C[N+]1(C)CCCC(OC(=O)C(O)(c2ccccc2)c2ccccc2)C1 (stereo not given),Potency,[3],inactive
Cc1c(C)c2c(c(C)c1O)CCC(C)(COc1ccc(CC3SC(=O)NC3=O)cc1)O2 (stereo not given),Potency,[6],"inconclusive: 33.5 µM [cytotoxic, single point] and inconclusive: 37.2 µM [cytotoxic, single point]"
same,Potency,[3],"inconclusive: 23.7 µM [cytotoxic, partial curve, poor fit]"
same,Potency,[4],"inconclusive: 16.8 µM [cytotoxic, partial curve, poor fit]"
CC1(C)O[C@@H]2C[C@H]3[C@@H]4CCC5=CC(=O)CC[C@]5(C)[C@@]4(F)[C@@H](O)C[C@]3(C)[C@]2(C(=O)CCl)O1,Potency,[2],inactive
same,Potency,[3],inactive
Nc1ccc(S(=O)(=O)Nc2ccccc2)cc1,Potency,[4],inactive
CC(CN1c2ccccc2Sc2ccccc21)N(C)C (stereo not given),Potency,[2],inactive
CNC(=O)c1ccc(N2C(=S)N(c3cnc(C#N)c(C(F)(F)F)c3)C(=O)C23CCC3)cc1F,Potency,[3],active: 7.43 µM
same,Potency,[4],active: 14.8 µM
CC1C(=O)OC2C(O)C34C5CC(C(C)(C)C)C36C(OC(=O)C6O)OC4(C(=O)O5)C12O (stereo not given),Potency,[2],"inconclusive: 21.7 µM [cytotoxic, partial curve]"
same,Potency,[3],active: 14.8 µM
C#CCC(Cc1cnc2nc(N)nc(N)c2n1)c1ccc(C(=O)N[C@@H](CCC(=O)O)C(=O)O)cc1 (stereo not given in full),Potency,[3],active: 0.372 µM
CC[C@H](C)n1cc(C)c2c(C(=O)NCc3c(C)cc(C)[nH]c3=O)cc(-c3ccc(N4CCNCC4)nc3)cc21,Potency,[3],inactive
CC(=O)OCC(=O)NCCCOc1cccc(CN2CCCCC2)c1,Potency,[2],inactive
Cc1cccc(C)c1NC(=O)CN1CCN(CCCC(c2ccc(F)cc2)c2ccc(F)cc2)CC1,Potency,[2],inactive
same,Potency,[3],"inconclusive: 29.9 µM [cytotoxic, single point]"
CC(C)COC(=O)c1ccc(N)cc1,Potency,[2],inactive
CC(CN(C)C)C(C)(O)Cc1ccc(Cl)cc1 (stereo not given),Potency,[3],inactive
NC1=N[C@H]2[C@H](CS[C@H]2CCCCC(=O)O)N1,Potency,[2],inactive
same,Potency,[3],"inconclusive: 5.75 µM [cytotoxic, partial curve, poor fit]"
CC(=O)OCC1=C(C(=O)O)N2C(=O)[C@@H](NC(=O)Cc3cccs3)[C@H]2SC1,Potency,[3],inactive
CNC(=O)c1ccccc1Nc1nc(Nc2ccc(N3CCOCC3)cc2OC)ncc1Cl,Potency,[4],active: 18.7 µM
CCOC(=O)N1CCN([N+]([O-])=NOc2cc(ON=[N+]([O-])N3CCN(C(=O)OCC)CC3)c([N+](=O)[O-])cc2[N+](=O)[O-])CC1,Potency,[3],active: 5.9 µM
Cc1cc(O)c(C(C)C)cc1Cl,Potency,[2],inactive
CCN[C@H]1C[C@H](C)S(=O)(=O)c2sc(S(N)(=O)=O)cc21,Potency,[3],inactive
O=C1N=C(O)CN1/N=C/c1ccc(-c2ccc([N+](=O)[O-])cc2)o1,Potency,[3],"inconclusive: 26.6 µM [cytotoxic, single point]"
C[C@H](O)C(=O)Nc1c(I)c(C(=O)NC(CO)CO)c(I)c(C(=O)NC(CO)CO)c1I,Potency,[3],inactive
C=CCNC(N)=S,Potency,[4],inactive
NC(=O)NO,Potency,[4],"inconclusive: 3.72 µM [cytotoxic, full curve]"
